# Assay results: PubChem BioAssay AID686979 (National Center for Advancing Translational Sciences (NCATS), 2013)
# In all, about 420,000 compounds went through this assay and about 50,000 (12%) were called active. This list was built around the results that the source calls inconclusive (neither active nor inactive); the mix of calls is not that of the screen. Calls follow the shape of the dose curve; as a rule, active = well fitted inhibition curve with a large enough effect; inconclusive = small, poorly fitted or top-dose-only effect; inactive = flat fitted curve, though single readings scatter. Potencies of inconclusive entries are left out as doubtful fits.
# Assay: qHTS for Inhibitors of human tyrosyl-DNA phosphodiesterase 1 (TDP1): qHTS in cells in presence of CPT; also: nearly all actives have a fitted effect of over 55% in size
# Conditions: chicken DT40 Tdp1-/-;hTDP1 cells + 20 nM CPT, ATP luminescence, 48 h; activity change, negative = growth inhibition: at 46.2 µM (top of the series) unless noted
# Procedure, shortened: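 Chicken DT40 Tdp1-/- cells complemented with human TDP1, 400 cells/well, exposed to compounds plus 20 nM camptothecin for at least 48 h at 37 C; viability read as ATP content by CellTiter-Glo luminescence.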
# % is scaled to controls: 0 for no effect and ±100 for the full control effect; potency is read from the fitted curve at half-maximal effect; tags tell the direction and shape of the fitted curve.
SMILES,Potency,"activity change, negative = growth inhibition"
CCOC(=O)c1[nH]cnc1C(=O)NC1CCN(C(=O)OC(C)(C)C)CC1,inactive,–
CCOc1cc2c(C#N)c(N(CC)CC)nc(N)c2c(N)n1,"inconclusive [inhibitor, single point]",–
O=C(Nc1nc2c(F)cc(F)cc2s1)c1ccccn1,active: 0.651 µM,–
CCCn1c(C)cc(C(=O)COC(=O)CN=C2NS(=O)(=O)c3ccccc32)c1C,"inconclusive [inhibitor, full curve, poor fit]",–
CC1CCN(CC(=O)Nc2ccc(S(=O)(=O)N3CCCCC3)cc2)CC1,"inconclusive [inhibitor, single point]",–
CC(C)C(=O)NC(=S)Nc1ccc(S(=O)(=O)NC2CCCCC2)cc1,"inconclusive [inhibitor, single point]",–
CCOC(=O)c1ccc(CN(Cc2ccc(F)cc2)S(=O)(=O)c2ccc(F)c(C(=O)Nc3c(C)cccc3C)c2)cc1,"inconclusive [inhibitor, single point]",–
Cc1ccc(C(C(=O)NCc2ccco2)N(C(=O)CNC(=O)c2cccs2)c2c(C)cc(C)cc2C)cc1 (configuration not stated),active: 10.3 µM,–
CCc1ccc(C2CC(=O)c3c([nH]c(C(=O)OC4CCCC4)c3C)C2)cc1 (configuration not stated),"inconclusive [inhibitor, partial curve]",–
COc1cccc(-c2nc(CS(=O)(=O)CC(=O)N3CCN(c4cc(C)ccc4C)CC3)c(C)o2)c1,active: 3.26 µM,–
CC[C@]1(C(=O)OC)[C@H]2C(=O)N(C)C(=O)[C@H]2[C@H]2CN=C(SCc3ccc(C#N)cc3)N21,inactive,–
CC(C)C1Oc2ccccc2N(CC(=O)N2CCOCC2)C1=O (configuration not stated),–,inconclusive: 3.22% [inhibitor]
C=CCc1ccc(OCCCNCc2ccccc2)c(OC)c1,"inconclusive [inhibitor, partial curve]",–
CCOC(=O)C(C)(C)n1nnc(-c2ccc([N+](=O)[O-])cc2)n1,inactive,–
C[C@@H](NC(=O)c1[nH]cnc1C(=O)Nc1ccon1)c1ccccc1,active: 16.4 µM,–
CCOc1cc2c(cc1OCC)CN(CC(=O)Nc1ccccc1C(=O)NC1CC1)CC2,"inconclusive [inhibitor, single point]",–
O=C(COc1ccccc1C(=O)Nc1ccccc1)NCCCCc1ccccc1,"inconclusive [inhibitor, single point]",–
COc1ccc(CCn2c(-c3cc([N+](=O)[O-])cc([N+](=O)[O-])c3)nc3nc4ccccc4nc32)cc1,"inconclusive [inhibitor, partial curve, poor fit]",–
COc1ccc(C2=NNC(c3cccnc3)=Nc3ccc(OC)cc32)cc1,–,inconclusive: -31.2% [inhibitor]
CCOc1ccc(C(=O)NNC2CC(=O)N(Cc3ccc(Cl)cc3)C2=O)cc1OC (configuration not stated),inactive,–
CCOc1ccc(S(=O)(=O)N2CCCCC2)cc1NC(=O)Cc1cccc(C(F)(F)F)c1,"inconclusive [inhibitor, single point]",–

SMILES,Potency,"activity change, negative = growth inhibition"
O=C1C(Cc2ccccc2)Nc2ncnc(N3CCCCC3)c2N1Cc1ccc(Br)cc1 (configuration not stated),"inconclusive [inhibitor, single point]",–
CCOc1ccc(NC(=O)Cn2c(=O)n(CCCCCC(=O)NCc3ccccc3)c(=O)c3sccc32)cc1,"inconclusive [inhibitor, single point]",–
N#C/C(=C(O)\C=C\c1ccccc1)c1nc2ccccc2[nH]1,inactive,–
COc1cccc(NC(=O)N(C)C[C@H]2Oc3cc(Br)ccc3S(=O)(=O)N([C@H](C)CO)C[C@H]2C)c1,"inconclusive [inhibitor, single point]",–
CCCCCCCn1c(=N)n(CC(O)c2ccco2)c2ccccc21 (configuration not stated),active: 3.66 µM,–
CCC(c1nnnn1CC1CCCO1)N(CCCO)Cc1cc2cccc(C)c2[nH]c1=O (configuration not stated),"inconclusive [inhibitor, single point]",–
CC(C)C[C@@H](CN1CCCC1CN1C(=S)NC[C@@H]1Cc1ccc(O)cc1)N1C[C@H](Cc2ccc(O)cc2)N(CCc2ccccc2)C1=S (some centres not stated),active: 13 µM,–
CC(C)CC1C(=O)N(Cc2cn(CCC3OCCO3)nn2)CCS(=O)(=O)N1Cc1ccc(-c2cccc(N(C)C)c2)cc1 (configuration not stated),"inconclusive [inhibitor, single point]",–
Cc1ccc(C)c2c1sc(=NC(=O)CN1C(=O)CCC1=O)n2C,"inconclusive [inhibitor, single point]",–
Cc1ccc2c(CNCc3ccc(C)o3)c(C(=O)O)n(Cc3ccccc3C)c2c1,"inconclusive [inhibitor, single point]",–
NNC(=O)c1ccc2c(c1)S(=O)(=O)NNC2=O,inactive,–
CC1CC(C)CN(C(=O)CSc2ccsc2[N+](=O)[O-])C1 (configuration not stated),"inconclusive [inhibitor, single point]",–
COc1ccc([N+](=O)[O-])cc1/C=N/NC(=O)CNC(=O)C(c1ccccc1)c1ccccc1,"inconclusive [inhibitor, single point]",–
CCOC(=O)C1CCN(Cc2ccc(O)c3ncccc23)CC1,active: 4.61 µM,–
CC(C)(C)S(=O)N1Cc2cc(C(=O)NCCCN3CCOCC3)nc(-c3cccc(-c4cc5ccccc5o4)c3)c2[C@@H]1CCO (some centres not stated),active: 13 µM,–
N#C/C(=C(/O)COC(=O)CSc1ccc2ccccc2c1)c1nc2ccccc2[nH]1,active: 5.17 µM,–
CCN=c1scc(C)n1/N=C/c1ccc(O)c(O)c1O,active: 14.6 µM,–
Cc1ccc2[nH]c(=O)c(CN(Cc3ccccc3Cl)C(=O)N3CCOCC3)cc2c1,"inconclusive [inhibitor, single point]",–
Cc1ccc(NC(=O)c2ccccc2O)cc1,"inconclusive [inhibitor, partial curve]",–
COCC(=O)N1CCc2ccc(NC(=O)c3ccc(C(F)(F)F)cc3)cc2C1,"inconclusive [inhibitor, full curve]",–
CCn1c(-c2cccnc2)nc2cc(NC(=O)COC)cc(C(=O)N3CC[C@@H]4CCCC[C@H]4C3)c21,inactive,–
